Among all 310,000 compounds or so, about 14,000 (4.5%) showed an effect of 50% or more. The effect is printed as a negative number. The list shows a part of the results.
Molecular target: human ether-à-go-go-related gene (hERG) potassium channel (human, UniProt Q12809)
Assay: primary screen, population patch clamp on CHO cells stably expressing hERG
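Further: peak tail current of the secondary pulse compared with the same well before compound.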

Sequence of human ether-à-go-go-related gene (hERG) potassium channel (Q12809 whole entry, looked up): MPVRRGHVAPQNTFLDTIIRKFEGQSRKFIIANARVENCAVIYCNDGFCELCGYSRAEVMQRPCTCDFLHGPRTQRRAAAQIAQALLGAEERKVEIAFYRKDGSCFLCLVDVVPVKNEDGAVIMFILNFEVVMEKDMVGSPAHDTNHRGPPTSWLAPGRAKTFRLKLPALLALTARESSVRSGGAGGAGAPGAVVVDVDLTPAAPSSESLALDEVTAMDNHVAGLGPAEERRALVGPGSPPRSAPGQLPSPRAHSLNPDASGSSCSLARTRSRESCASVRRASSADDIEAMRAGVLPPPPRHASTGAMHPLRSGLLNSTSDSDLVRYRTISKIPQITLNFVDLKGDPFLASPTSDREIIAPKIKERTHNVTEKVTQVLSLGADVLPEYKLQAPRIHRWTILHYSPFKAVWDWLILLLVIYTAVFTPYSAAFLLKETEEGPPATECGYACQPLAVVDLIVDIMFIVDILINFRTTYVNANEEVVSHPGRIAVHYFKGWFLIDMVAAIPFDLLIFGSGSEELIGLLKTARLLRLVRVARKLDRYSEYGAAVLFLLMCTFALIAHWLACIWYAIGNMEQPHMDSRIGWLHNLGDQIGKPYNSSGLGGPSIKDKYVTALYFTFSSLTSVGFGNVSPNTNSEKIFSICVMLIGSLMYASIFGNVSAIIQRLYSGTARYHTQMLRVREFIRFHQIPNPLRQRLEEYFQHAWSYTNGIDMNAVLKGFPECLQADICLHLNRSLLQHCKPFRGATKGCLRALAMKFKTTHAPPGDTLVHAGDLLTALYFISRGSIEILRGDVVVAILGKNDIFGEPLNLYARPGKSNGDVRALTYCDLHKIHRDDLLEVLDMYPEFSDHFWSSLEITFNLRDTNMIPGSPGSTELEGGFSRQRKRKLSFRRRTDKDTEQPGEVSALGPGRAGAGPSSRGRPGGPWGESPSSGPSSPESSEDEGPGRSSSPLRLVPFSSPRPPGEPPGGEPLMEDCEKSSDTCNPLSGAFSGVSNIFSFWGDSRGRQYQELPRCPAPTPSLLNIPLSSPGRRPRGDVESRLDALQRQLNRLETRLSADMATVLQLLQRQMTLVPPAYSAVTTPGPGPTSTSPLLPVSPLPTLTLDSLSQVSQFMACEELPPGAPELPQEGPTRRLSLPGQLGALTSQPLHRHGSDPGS

Row | Structure (SMILES) | hERG current change (%, negative = inhibition) at 10uM [%]
1 | CCc1ccc[n+](-c2[nH]c(=O)sc2/C=N/N=C(\[O-])CCn2c3ccccc3c3ccccc32)c1 | 14.9
2 | Cc1nc(C(=O)NC2CCOCC2)sc1C1(C)CC(c2cccc([N+](=O)[O-])c2)=NO1 (stereo not shown) | -23.3
3 | NS(=O)(=O)c1ccc(NC(=O)/C=C/c2cccc(Cl)c2)cc1 | 0.282
4 | CCOC(=O)C1=C(C)N(CCCC(=O)O)C(=O)NC1c1ccc([N+](=O)[O-])cc1 (stereo not shown) | 12.5
5 | COC(=O)C1=C(c2cccc(OCc3ccccc3)c2)C[C@@H]2CC[C@H]1N2C(=O)NCc1ccc([N+](=O)[O-])cc1 | 1.06
6 | CC1(C)CC(/C=C/c2ccccc2)=Nc2ccccc2N1 | -26.6
7 | COc1ccc(OC)c(NC(=O)COC(=O)c2ccc(OC)c(S(=O)(=O)N3CCCC3)c2)c1 | 16.9
8 | CC1NC(C)(C)Cc2c1ccc1ccccc21.Cl (stereo not shown) | 0.121
9 | COc1ccccc1CNS(=O)(=O)c1ccc2c(c1)CC(C)N2C(=O)C1CC1 (stereo not shown) | -5.03
10 | CN(Cc1ccccc1)C(=O)CCS(=O)(=O)c1ccc2c(c1)n(C)c(=O)c(=O)n2C | -8.17
11 | COc1ccc(COC(=O)C2=C(C)NC(=O)NC2c2ccc(OC)c(OC)c2)cc1 (stereo not shown) | 8.58
12 | O=C(COc1ccccc1)Nc1ccc(S(=O)(=O)Nc2ncccn2)cc1 | 23.4
13 | CC(=O)OC1CC[C@@]2(C)C(CCC3C2CC(=O)[C@@]2(C)C3CC3CC(C)=CC(=O)C32)C1 (stereo partly shown) | 9.48
14 | Cc1cc(OC(C)C(=O)NCCCn2ccnc2)c2c(C)c(C)c(=O)oc2c1 (stereo not shown) | -76.7
15 | O=C1NC(c2ccncc2)Nc2ccccc21 (stereo not shown) | 21.8
16 | COc1ccc(C2(CNC(=O)CCC(=O)O)CCCC2)cc1 | 1.6
17 | CC(C)CCN=Cc1c(O)n(-c2ccccc2)c(=O)c2ccccc12 | -7.19
18 | CN(C)C(=O)N1CCCC(C(=O)NCc2ccccc2)C1 (stereo not shown) | 13.6
19 | CCN1CCN(C(=O)/C=C/c2ccc(C)cc2)CC1 | -23.1
20 | Cc1ccc(NS(=O)(=O)c2ccc(-c3ccc(=O)[nH]n3)o2)cc1 | -12.7
21 | CCSc1nnc(NC(=O)Nc2cccc(C)c2)s1 | 12.8
22 | CC(C)N(C(=O)CSc1nnc(NC(=O)C2CCC2)s1)C(C)C | -11.1

Row | Structure (SMILES) | hERG current change (%, negative = inhibition) at 10uM [%]
23 | Cc1nn(C)c2nc(-c3cccs3)cc(C(F)(F)F)c12 | 12.7
24 | CCC(c1nnc(SCC(=O)NCCc2ccc(Cl)cc2Cl)o1)N(C)C (stereo not shown) | -19.9
25 | O=C1CN(C(=O)c2ccco2)C(c2ccc(F)cc2)c2cc(Cl)ccc2N1 (stereo not shown) | -35.9
26 | O=C(Cn1ccsc1=NC(=O)c1ccco1)c1ccccc1 | -6.93
27 | CC1CCN(C(CNS(=O)(=O)c2ccccc2)c2ccccc2)CC1 (stereo not shown) | -19.9
28 | O=C(Nc1ccc(Cl)cc1)Nc1nc(-c2ccccc2)cs1 | 11.3
29 | C/C(=N\NC(=O)c1ccc(Cn2cc(Br)cn2)o1)c1cccc(NC(=O)C(C)(C)C)c1 | -49
30 | C/C(=N/OC(=O)C1CC12CCC2)c1ccc(Br)cc1 (stereo not shown) | 7.97
31 | O=S(=O)(Nc1ccc2cn[nH]c2c1)c1ccc(Cl)cc1 | 13.1
32 | CCOC(=O)c1ccccc1NC(=O)CN1C(=O)c2ccccc2S1(=O)=O | 2.58
33 | CCCC[N+]12CCC(CC1)C(C(O)(c1ccccc1)c1ccccc1)C2.[Br-] (stereo not shown) | 5.84
34 | O=C(NC(=S)N1CCCC1)c1ccccc1 | 21.3
35 | C=CCNc1nc(C2(C)CC3(CC(C)(C)OC3=O)C(=O)O2)cs1 (stereo not shown) | 2.28
36 | COC(=O)c1c(NC(C)=O)sc2c1CCCCC2 | 4.28
37 | COc1ccc(C(=O)N/N=C(\C)Cn2nc([N+](=O)[O-])cc2C)cc1 | -15.8
38 | COc1cc(CNCCc2ccc(S(N)(=O)=O)cc2)ccc1OCc1ccc(Cl)cc1.Cl | -31.8
39 | Cl.c1ccc(Nc2nc(N3CCOCC3)c3ccccc3n2)cc1 | -14.2
40 | Nc1nc(CN2CCN(Cc3ccccc3)CC2)nc(N2CCCc3ccccc32)n1 | -56.5
41 | CCCOc1ccccc1C1CC(=O)NC2=C1C(=O)CCC2 (stereo not shown) | -1.24
42 | O=C(COC(=O)c1ccccc1[N+](=O)[O-])NCCCc1ccccc1 | -8.71
43 | COc1ccc(-c2nnc(-c3cc4c(ccc5ccccc54)oc3=O)o2)cc1 | -8.75

From article PMC4336329 (PLoS ONE, 2015)
